Test system: Fpr2^-/- neutrophils
Assay: NADPH-oxidase activity in neutrophils from wild type versus Fpr2-/- mice
Assay type: cell-based
Conditions: mouse bone marrow neutrophils (5x10^4); fMIFL 10 nM, fMYFINILTL 50 nM

fMIFL [reference compound]
Activity in Fpr2-/- neutrophils compared with WT neutrophils: no difference

From article PMC5132201, “Formylated MHC Class Ib Binding Peptides Activate Both Human and Mouse Neutrophils Primarily through Formyl Peptide Receptor 1” (PLoS ONE, 2016)
